{"source": "PubChem BioAssay AID1345082", "about": "(National Center for Advancing Translational Sciences (NCATS), 2018)", "note": "“And” between values parts separate entries of the source, which are not always exact repeats. Equal values may be shown once. Hit rate of the full screen: of about 94,000 compounds, about 4,000 (4.3%) were called active. The inconclusive results got no clear call from the source; some entries with a clear call stand among them for comparison. Calls follow the shape of the dose curve; as a rule, active = well fitted inhibition curve with a large enough effect; inconclusive = small, poorly fitted or top-dose-only effect; inactive = no such curve, though single readings can be large or run the other way. Where the call is inconclusive, the potency comes from a doubtful curve fit. % is scaled to controls: 0 for no effect and ±100 for the full control effect; potency is read from the fitted curve at half-maximal effect; tags tell the direction and shape of the fitted curve."}
{"assay": "Cytotoxic Profiling in NIH 3T3 Cell Line of Diverse Libraries Using Quantitative High-Throughput Screening; also: nearly all actives have a fitted effect of over 55% in size", "conditions": "NIH 3T3 viability, CellTiter-Glo ATP luminescence, 48-72 h; activity change, negative = cytotoxicity: at 96.7 µM (top of the series) unless noted; series mostly up to 96.7 µM", "procedure,_shortened": "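Luminescent ATP readout (CellTiter-Glo, 10 min RT) after 48 or 72 hr compound exposure of NIH 3T3 cells seeded at 400 cells/well in 1536-well format; quantitative HTS.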"}
{"smiles": "c1cc(Cn2ccc3c(N4CCOCC4)nc(-c4cn[nH]c4)cc32)ccn1", "Potency": "inconclusive: 50.1 µM [inhibitor, partial curve, poor fit]"}
{"smiles": "CC(=O)Nc1ccc(NC(=O)c2cc3n(n2)CC(c2ccc(Cl)cc2)OC3)cc1", "note": "(centres undefined)", "activity change, negative = cytotoxicity": "inactive: -25.9%"}
{"smiles": "COc1ccc(-c2ccc3ncc(Nc4ccnc(N5CCOCC5)c4)n3n2)cc1OC", "Potency": "active: 44.7 µM"}
{"smiles": "COc1ccc(-c2noc([C@@H]3C[C@H](NC(=O)c4ccc(F)cc4)CN3C)n2)cc1", "Potency": "inconclusive: 100 µM [inhibitor, partial curve, poor fit]"}
{"smiles": "COCCCNC(=O)CCCN1C(=O)COc2ccc(C(=O)COc3cccc(C)c3C)cc21", "Potency": "inconclusive: 6.31 µM [inhibitor, full curve, poor fit]"}
{"smiles": "CCN(CC)Cc1nc(C2(O)CCN(Cc3ccccc3)CC2)cs1", "Potency": "inconclusive: 112 µM [inhibitor, partial curve]"}
{"smiles": "CN(c1ccccc1)c1cc(=O)c2ccnc(-c3cccnc3)c2o1", "Potency": "active: 17.8 µM"}
{"smiles": "O=C1[C@@H]2C[C@@H](CN2Cc2ccc3c(c2)OCO3)Oc2ccccc2N1CC1CC1", "Potency": "inconclusive: 89.1 µM [inhibitor, partial curve]"}
{"smiles": "CCc1nc(-c2ccc(OC3CCN(C(=O)c4sc(C)nc4C)C3)cc2)no1", "note": "(centres undefined)", "Potency": "inconclusive: 31.6 µM [inhibitor, full curve, poor fit]"}
{"smiles": "O=C(Nc1ccc2c(c1)OCCO2)c1nn(CC2CC2)c2c1CNCC2", "activity change, negative = cytotoxicity": "inactive: -28.1%"}
{"smiles": "Cc1sc2ccn(CC(C)C)c(=O)c2c1C(=O)N1CCCCC1", "activity change, negative = cytotoxicity": "inactive: 4.55%"}
{"smiles": "O=C1NCc2ccccc2CC12CCN(Cc1cnc3ccccc3c1)CC2", "activity change, negative = cytotoxicity": "inactive: -18.3%"}
{"smiles": "O=C(c1ccc(Cl)cc1)N1CCn2c(nnc2-c2ccc(Cl)cc2)C1", "Potency": "inconclusive: 56.2 µM [inhibitor, partial curve, poor fit]"}
{"smiles": "O=C(c1cc(-c2ccsc2)c2nncn2n1)N1CCN(Cc2ccccc2)CC1", "Potency": "inconclusive: 44.7 µM [inhibitor, partial curve, poor fit]"}
{"smiles": "Cc1nn(-c2ccccc2)c2c1C(C1CC1)N(C1CCN(C(=O)c3ccc(Cl)cc3)C1)C2=O", "note": "(centres undefined)", "Potency": "inconclusive: 17.8 µM [inhibitor, full curve]"}
{"smiles": "CN(Cc1ccccc1)Cc1cn([C@H]2CO[C@H]3[C@@H]2OC[C@@H]3NC(=O)Nc2ccc(Oc3ccccc3)cc2)nn1", "activity change, negative = cytotoxicity": "inactive: -12.6%"}
{"smiles": "Cn1c(CNC(=O)c2ccc3nccn3c2)nc2cc(C(F)(F)F)ccc21", "Potency": "inconclusive: 50.1 µM [inhibitor, partial curve, poor fit]"}
{"smiles": "COCCn1c(C)cnc1CC1CCCN(Cc2ccc(C#N)cc2)C1", "note": "(centres undefined)", "Potency": "inconclusive: 79.4 µM [inhibitor, partial curve, poor fit]"}
{"smiles": "COc1ccc(S(=O)(=O)N2CCCC(Cn3c(C4CC4)nc4cccnc43)C2)cc1", "note": "(centres undefined)", "Potency": "inconclusive: 50.1 µM [inhibitor, partial curve, poor fit]"}
{"smiles": "CCc1cccc2c(C(CC(=O)N3CCCC3)c3cccc([N+](=O)[O-])c3)c[nH]c12", "note": "(centres undefined)", "Potency": "active: 28.2 µM"}
{"smiles": "COc1ccc(-c2ccc3nc(-c4cccc(C)c4C)oc3c2)c(OC)c1OC", "Potency": "inconclusive: 50.1 µM [inhibitor, partial curve, poor fit]"}
{"smiles": "COc1ccc(-n2nc(C)c([C@@H]3C=C[C@@H](NC(=O)Nc4cccc(C#N)c4)C3)c2C)cc1", "Potency": "inconclusive: 89.1 µM [inhibitor, partial curve, poor fit]"}
{"smiles": "CCCCn1c(=O)c(C(=O)NCCc2ccccc2F)nc2cccnc21", "activity change, negative = cytotoxicity": "inactive: -25.5%"}
{"smiles": "COc1ccccc1-c1cc(C(=O)NC2CCCC2)c2cnn(C)c2n1", "Potency": "inconclusive: 56.2 µM [inhibitor, partial curve, poor fit]"}
{"smiles": "Cc1cc(CN2CCC3(CC2)CN(c2ccncn2)CC3CO)n(C)n1", "note": "(centres undefined)", "Potency": "inconclusive: 79.4 µM [inhibitor, partial curve, poor fit]"}
{"smiles": "COCCOCc1nc(C2CCCCN2C(=O)Nc2cccc(C(F)(F)F)c2)no1", "note": "(centres undefined)", "activity change, negative = cytotoxicity": "inactive: -22.1%"}
{"smiles": "CC(C)c1nc2c(NC(=O)Nc3cccc(Cl)c3)cccn2n1", "Potency": "inconclusive: 31.6 µM [inhibitor, partial curve]"}
{"smiles": "COCC(=O)N1CCc2cn(CC(C)C)c3cccc(c23)C1", "Potency": "inconclusive: 50.1 µM [inhibitor, partial curve, poor fit]"}
{"smiles": "COc1ccc(-c2noc([C@@H]3CCCN3C(=O)c3ccccc3Cl)n2)cc1", "activity change, negative = cytotoxicity": "inactive: -22.2%"}
{"smiles": "COc1ccc(C(=O)N2CCN(C(=O)c3cccc(-c4ccccc4OC)c3)CC2)cc1", "Potency": "inconclusive: 70.8 µM [inhibitor, single point]"}
{"smiles": "CC(C)c1noc(-c2cn(C3CCN(C(=O)c4cccc(Cl)c4)C3)nn2)n1", "note": "(centres undefined)", "Potency": "inconclusive: 22.4 µM [inhibitor, full curve]"}
{"smiles": "Cc1ccc2nc([C@H]3CCN(Cc4ccc(S(C)(=O)=O)cc4)C3)[nH]c2c1", "activity change, negative = cytotoxicity": "inactive: -25.7% [at 174 µM]"}
{"smiles": "COc1ccc(-c2nc3ncccc3[nH]2)cc1", "Potency": "inconclusive: 56.2 µM [inhibitor, partial curve, poor fit] and active: 79.4 µM"}
{"smiles": "CCn1nc(C)c(CN2C[C@@H](COC)[C@H](c3ccncc3)C2)c1C", "outcome": "inactive"}
{"smiles": "Cc1cccc(-c2noc([C@@H]3Cc4nc[nH]c4CN3C(=O)CCC(=O)O)n2)c1", "activity change, negative = cytotoxicity": "inactive: -4.77% [at 174 µM]"}
{"smiles": "O=C(Nc1cccn2nc(C3CCC3)nc12)c1ccc(F)cc1Cl", "Potency": "inconclusive: 28.2 µM [inhibitor, partial curve, poor fit]"}
{"smiles": "Cc1ccc(NC(=O)N2CCc3c(C(=O)NCCCN4CCCC4=O)cccc32)cc1", "Potency": "inconclusive: 44.7 µM [inhibitor, partial curve, poor fit]"}
{"smiles": "CCOc1ccccc1C(=O)N1CCC2(CC1)NC(=O)N(c1ccccc1)N2", "Potency": "inconclusive: 39.8 µM [inhibitor, partial curve]"}
{"smiles": "Cc1nc(CN2CC3(CCN(C)C3)c3cc(C(=O)NCC4CC4)ccc32)cs1", "note": "(centres undefined)", "Potency": "inconclusive: 112 µM [inhibitor, partial curve, poor fit]"}
{"smiles": "COc1cccc(-c2cccc(C(=O)N3CCN(C(=O)Cc4ccc(F)cc4)CC3)c2)c1", "Potency": "inconclusive: 44.7 µM [inhibitor, partial curve]"}
{"smiles": "Cc1nnc2ccc(N3CCC(NC(=O)C(C)C)CC3)nn12", "activity change, negative = cytotoxicity": "inactive: -15.2% [at 138 µM]"}
{"smiles": "COc1cccc(C(=O)N2CCc3nc(-c4ccc(Cl)cc4)nc(-c4ccccc4)c3C2)c1", "Potency": "inconclusive: 44.7 µM [inhibitor, partial curve, poor fit]"}
{"smiles": "COc1ccc2ccc(OCc3nc(C(=O)NCc4cnc(C)cn4)co3)cc2c1", "Potency": "inconclusive: 39.8 µM [inhibitor, partial curve]"}
{"smiles": "Cc1cccc(C(=O)N2CCCC(c3nc(C4CCOCC4)no3)C2)c1", "note": "(centres undefined)", "activity change, negative = cytotoxicity": "inactive: -13.8%"}
{"smiles": "Cc1cccc(NC(=O)Cn2c(N3CCC(C)CC3)nc(C)cc2=O)c1", "Potency": "inconclusive: 44.7 µM [inhibitor, partial curve, poor fit]"}
{"smiles": "Cc1noc(C)c1-c1cc2c(c(-c3cccc(OC(C)C)c3)c1)C(=O)N(C)C2", "Potency": "inconclusive: 56.2 µM [inhibitor, partial curve, poor fit]"}
{"smiles": "COc1nc(C)c(C(=O)N2CCn3nc(CO)cc3C2)s1", "activity change, negative = cytotoxicity": "inactive: -13.7%"}
{"smiles": "NC(=O)COC[C@@H]1CN(Cc2ccccc2)C[C@H]1c1ccncc1", "Potency": "inconclusive: 70.8 µM [inhibitor, single point]"}
{"smiles": "Cc1cccc(CN2CCc3nc(C(=O)NCc4ccccc4)oc3CC2)c1", "Potency": "inconclusive: 50.1 µM [inhibitor, partial curve, poor fit]"}
{"smiles": "Cc1noc(C2CC3(CCN(C(=O)COc4ccccc4)CC3)CN2C)n1", "note": "(centres undefined)", "outcome": "inactive"}
{"smiles": "CCc1cccc(NC(=O)CN2C(=O)NC3(CCC(C)CC3)C2=O)c1", "note": "(centres undefined)", "Potency": "inconclusive: 50.1 µM [inhibitor, partial curve, poor fit]"}
{"smiles": "O=c1c2nc(-c3ccoc3)ccc2ncn1Cc1ccccc1", "Potency": "inconclusive: 79.4 µM [inhibitor, partial curve, poor fit]"}
{"smiles": "COc1ccc(-c2nc(C3CC3)nc3c2CCN(C(=O)c2ccccc2)CC3)cc1", "Potency": "inconclusive: 50.1 µM [inhibitor, partial curve, poor fit]"}
{"smiles": "O=C(NC1CCCN(CCc2ccccc2)C1)C1(Cn2cccn2)CC1", "note": "(centres undefined)", "Potency": "inconclusive: 25.1 µM [inhibitor, full curve, poor fit]"}
{"smiles": "CCCCNC(=O)N1CC(C(=O)N2CCCC(C(=O)OCC)C2)CC(c2ccc(F)c(C)c2)C1", "note": "(centres undefined)", "Potency": "inconclusive: 50.1 µM [inhibitor, partial curve, poor fit]"}
{"smiles": "O=S(=O)(NCCc1noc(-c2ccncc2)n1)c1ccc(F)cc1", "activity change, negative = cytotoxicity": "inactive: -22.4%"}
{"smiles": "O=C1NC(=NC2CCCC2)C2(CCN([S+](=O)([O-])c3cccs3)CC2)N1c1cccnc1", "activity change, negative = cytotoxicity": "inactive: 1.98%"}
{"smiles": "CN1CCC([C@@H]2CN(S(=O)(=O)c3cccc(C#N)c3)C[C@H]2C(N)=O)CC1", "activity change, negative = cytotoxicity": "inactive: -13.7%"}
{"smiles": "O=C1NCCCCCCN(Cc2ccncc2)[C@@H]2CN(C(=O)Nc3ccccc3)CC[C@H]12", "Potency": "inconclusive: 25.1 µM [inhibitor, full curve]"}
{"smiles": "Cc1cc(-c2ccnc(-c3nnc(C)n3-c3ccccc3)c2)ccn1", "Potency": "active: 25.1 µM"}
{"smiles": "CNC(=O)c1cc(C)nc2onc(C3CCN(C(=O)Nc4ccc(Cl)cc4)CC3)c12", "activity change, negative = cytotoxicity": "inactive: -30.7%"}
{"smiles": "O=C(CCCc1ccccc1)N1CCC2(CC1)CC(Cc1nc(C3CC3)no1)CCO2", "note": "(centres undefined)", "Potency": "inconclusive: 31.6 µM [inhibitor, full curve]"}
{"smiles": "CC(C)C1=NOC2(CCN(CC3CC3)CC2)C1", "outcome": "inactive [at 174 µM]"}
{"smiles": "COc1ccc(C(=O)N2CCC(N3C(=O)c4c(c(C)nn4-c4ccccc4)C3C(C)C)C2)cc1", "note": "(centres undefined)", "Potency": "inconclusive: 50.1 µM [inhibitor, partial curve, poor fit]"}
